# Reference: PubChem BioAssay AID488969 (Vanderbilt High Throughput Screening Facility, 2010)
# The full ranking holds about 110,000 compounds; the median of “z-score” is about -0.1, and the highest 2% start at about 2. Some of the results follow. Active and inactive are the calls of the source.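 The calls were made as follows: active = z-score in the third read window above 3 or below -3; inactive = the rest.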
# Target: Metabotropic glutamate receptor 8 (Rattus norvegicus) (UniProt P70579)
# Assay: rat mGluR8 modulators via GIRK flux, primary screen, cell-based, thallium flux, HTS (AID 488969)
# Details: HEK293 rat mGluR8, GIRK (G protein-gated inwardly rectifying potassium channel) thallium flux, FluoZin2; at 10 µM; stronger effect = higher value; submaximal glutamate (EC20) added with thallium
# Sequence of UniProt P70579 (P70579 whole entry, looked up): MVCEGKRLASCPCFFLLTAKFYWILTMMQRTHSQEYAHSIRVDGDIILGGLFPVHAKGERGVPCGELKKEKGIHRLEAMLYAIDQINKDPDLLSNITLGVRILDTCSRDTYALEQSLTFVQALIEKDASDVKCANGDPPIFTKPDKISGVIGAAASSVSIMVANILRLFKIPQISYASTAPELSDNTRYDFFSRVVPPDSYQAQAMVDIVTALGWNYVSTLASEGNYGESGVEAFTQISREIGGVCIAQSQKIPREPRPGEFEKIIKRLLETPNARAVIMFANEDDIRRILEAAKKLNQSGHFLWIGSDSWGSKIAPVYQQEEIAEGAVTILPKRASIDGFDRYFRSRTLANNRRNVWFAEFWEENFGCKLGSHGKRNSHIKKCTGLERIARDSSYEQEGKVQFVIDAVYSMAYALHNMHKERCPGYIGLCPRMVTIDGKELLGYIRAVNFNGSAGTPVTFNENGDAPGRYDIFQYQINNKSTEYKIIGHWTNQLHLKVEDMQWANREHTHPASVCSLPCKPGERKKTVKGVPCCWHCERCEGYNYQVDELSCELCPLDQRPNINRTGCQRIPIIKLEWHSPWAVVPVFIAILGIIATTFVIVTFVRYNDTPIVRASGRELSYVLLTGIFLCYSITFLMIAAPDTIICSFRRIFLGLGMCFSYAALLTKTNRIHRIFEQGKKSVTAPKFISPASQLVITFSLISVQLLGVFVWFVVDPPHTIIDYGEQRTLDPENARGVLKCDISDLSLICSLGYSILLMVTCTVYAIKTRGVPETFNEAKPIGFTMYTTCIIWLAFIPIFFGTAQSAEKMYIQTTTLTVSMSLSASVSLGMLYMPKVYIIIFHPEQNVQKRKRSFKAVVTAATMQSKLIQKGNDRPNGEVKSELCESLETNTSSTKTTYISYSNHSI
row,SMILES,z-score
1,Cc1nc2cc(C(F)(F)F)ccc2n1C1CCN(CC(=O)N2CCOCC2)CC1,-0.233
2,Cc1cc(Cl)ccc1NC(=S)N1CCN(C(=O)C2CCCO2)CC1 (centres undefined),-0.0233
3,Cc1ccc(NC(=O)C2(c3cccs3)CCOCC2)cc1C,-0.0938
4,COc1ccc([N+](=O)[O-])cc1NC(=O)Cc1c(Cl)cccc1Cl,-0.12
5,CCCCn1c(CN2CCN(c3ccccc3)CC2)nc2c1c(=O)n(C)c(=O)n2C,-0.779
6,CCn1c(CSc2nc(C)cc(C)n2)nnc1SCC(=O)Nc1cccc2ccccc12,-2.2
7,COc1ccccc1N1CCN(C(=O)c2cc3c(-c4ccc(Cl)cc4)nn(C)c3s2)CC1,-0.537
8,CN1CCN(/C(=N\O)c2nonc2N)CC1,0.8
9,O=C(Nc1cnn(Cc2ccc(Cl)c(Cl)c2)c1)c1nc2ncccn2n1,-0.834
10,CCc1nnc(SCC(=O)N2CCCc3ccccc32)nc1CC,-0.635
11,O=C(Nc1ccc2oc(Cc3ccc(Cl)cc3)nc2c1)c1cccnc1,-0.377
12,CC1SC(c2ccccc2Cl)NC1=O (centres undefined),-0.0543
13,Cc1ccc(S(=O)(=O)N2CCOCC2)c2nsnc12,-0.358
14,O=C1NN(c2ccccc2)C(=O)/C1=C\c1ccccc1OCC(=O)N1CCOCC1,-0.207
15,CC(Sc1nc2ccc(Br)cc2[nH]1)C(=O)O (centres undefined),-0.936
16,CCCn1c(/C=C/c2ccco2)nc2ccccc21,-0.653
17,Cc1ccc(Sc2c(C(=O)Nc3ccc(F)cc3F)c(C(F)(F)F)nn2C)cc1,-0.15
18,CCc1nnc(NC(=O)c2c(OC)cccc2OC)s1,-0.213
19,COC(=O)C1=C(C)NC(C)=C(C(=O)OC)C1c1ccc(-c2cc(Cl)ccc2Cl)o1,-0.164
20,COc1ccccc1OCCCCCc1c(C)n[nH]c1C,-0.151
21,O=C(NCCCCCCNC(=O)c1ccc(Br)s1)c1ccc(Br)s1,-0.926
22,COc1ccc(NC(=O)NCCCN2CCCC2=O)c(OC)c1,-0.496
23,O=C(N/N=C/c1cccnc1)C(O)c1ccccc1 (centres undefined),-0.144
24,c1ccc(N2CCN(c3cnc4ccccc4n3)CC2)cc1,1.09
25,CC(C)Cn1c(-c2csc3ccccc23)n[nH]c1=S,0.509
26,CC1CCC(NC(=O)CC2Oc3ccccc3NC2=O)CC1 (centres undefined),-0.471
27,CC(c1nc2ccccc2o1)N1C(=O)c2ccccc2C1=O (centres undefined),-0.0989

row,SMILES,z-score
1,CC1=CC2(O)OCCN(CCO)C2=CC1=O (centres undefined),0.00259
2,Cc1sc2ncn(CC(=O)NCCCC(=O)N3CCN(c4ccccc4)CC3)c(=O)c2c1C,0.62
3,COc1cccc(OCC(=O)Nc2cc(Cl)ccc2Oc2ccccc2)c1,0.0395
4,CC1=CCC(C(=O)O)(C(=O)N/N=C/c2cccs2)C(c2ccc(F)cc2)C1 (centres undefined),-0.338
5,CCC(=O)Oc1ccc(C/C(=N\O)c2ccc(O)cc2O)o1,active: -4.27
6,COCCn1c(COc2ccc(OC)cc2)nc2ccccc21,-0.206
7,Cc1cc(C)n(-c2ccc(C(=O)NC(C)C)cc2)n1,0.502
8,Cc1cc(N)n2nc(C)c(-c3ccccc3)c2n1,-0.519
9,CC1Oc2ccccc2C=C1C1/C(=C(/O)c2ccccc2)C(=O)C(=O)N1CCCN(C)C (centres undefined),-0.085
10,Cc1ccc(N2C(=O)[C@@H]3[C@H](C2=O)[C@H]2C=C(C(=O)c4ccccc4)C=CN2[C@@H]3C(=O)c2ccc(Cl)cc2)cc1,0.782
11,Cc1nc(Nc2nc(CSc3nc4ccccc4[nH]3)cc(=O)[nH]2)nc2ccccc12,-0.218
12,CCCCOc1ccc(NC(=O)C2OC3OC(C)(C)OC3C3OC(C)(C)OC23)cc1 (centres undefined),-0.0505
13,Cc1ccc(C(=O)NNC(=O)C2CCN(Cc3ccccc3)CC2)cc1,0.137
14,CC(=O)c1cccc(NC(=O)N2CCCC2C(=O)NCc2ccc(C)cc2)c1 (centres undefined),-0.0933
15,O=C(O)CCc1ccc(-c2cccs2)n1NC(=O)c1ccccc1Br,-0.93
16,c1ccc2cc(Sc3ncnc4c3oc3ccccc34)ccc2c1,-0.143
17,Cc1ccc(-c2nnc(SCC(C)C)n2C)cc1,0.0158
18,O=C1CC(Nc2ccc3ccccc3c2)C(=O)N1Cc1ccccc1 (centres undefined),-0.0912
19,CCOC(=O)C1=NNC(C(=O)c2ccc(OC)cc2)C1c1ccccc1 (centres undefined),active: -4.76
20,C/C(=N\NC(=O)c1ccc(F)cc1)c1cccc(NC(=O)c2ccco2)c1,-0.249
21,O=c1c2[nH]c3ccccc3c2ncn1CCN1CCNCC1,0.252
22,Cc1ccc(S(=O)(=O)n2ccc3cccnc32)cc1,-0.282
23,CCOc1cc(/C=N/n2cnnc2)ccc1OC(=O)c1cccc([N+](=O)[O-])c1,-0.261
24,CCN(CC)CCOc1nc(C)nc2c1oc1ccccc12,1.01
25,CCOC(=O)CSc1nnnn1-c1cccc2ccccc12,-0.988
26,CC(C)CC(=O)Nc1nc(=S)ss1,0.664
27,C[N+]1(C)CC2([N+](=O)[O-])CC=C(Oc3ccccc3)C([N+](=O)[O-])(C2)C1 (centres undefined),-0.0235
